Results published in PubChem BioAssay AID1345083 (National Center for Advancing Translational Sciences (NCATS), 2018).
In all, about 94,000 compounds went through this assay and about 6,200 (6.6%) were called active. Inconclusive results, whose numbers are uncertain, are shown with a selection of clear calls. Calls follow the shape of the dose curve; as a rule, active = well fitted inhibition curve with a large enough effect; inconclusive = small, poorly fitted or top-dose-only effect; inactive = flat fitted curve, though single readings scatter. A potency beside an inconclusive call is a rough fit, not a confirmed value.
% is scaled to controls: 0 for no effect and ±100 for the full control effect; potency is read from the fitted curve at half-maximal effect; tags tell the direction and shape of the fitted curve.

Assay: Cytotoxic Profiling in HEK 293 Cell Line of Diverse Libraries Using Quantitative High-Throughput Screening; also: nearly all actives have a fitted effect of over 60% in size
Conditions: HEK 293 viability, ATP luminescence (CellTiter-Glo), 48-72 h; activity change, negative = cytotoxicity: at 115 µM (top of the series) unless noted; series mostly up to 115 µM
Outline: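 Read-out: CellTiter-Glo ATP luminescence. Cells: HEK 293, 250 cells/well. Exposure: 48 or 72 hr, 37 degree Celsius.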
In the case of `COc1ccc(-c2ccc(C(=O)N3CCN(C(=O)c4cccc(Cl)c4)CC3)cc2)nn1`, the “activity change, negative = cytotoxicity” value is reported as inactive: -0.234%. With `COCCNC(=O)Cc1csc2nc(C)c(-c3cc(C)n(-c4ccccc4F)n3)c(=O)n12` the “outcome” value was “inactive”. In the case of `O=C(CCCc1ccccc1)Nc1ccnn1C1CCN(C(=O)c2ccccc2F)CC1`, the Potency is reported as inconclusive: 89.1 µM [inhibitor, single point]. With `C[C@H](NC(=O)C[C@@H]1c2nc(NC(=O)c3ccc(F)cc3)sc2C[C@@H]2[C@](C)(CO)[C@H](O)CC[C@]21C)c1ccccc1` the Potency was active: 31.6 µM. With `Cc1nc(CC(=O)NCc2ccc3[nH]c(-c4ccc(F)cc4)c(C)c3c2)cs1` the Potency was inconclusive: 39.8 µM [inhibitor, partial curve, poor fit]. In the case of `Cc1ccccc1C1(O)CCN(C(=O)c2ccc(C#CC(C)(C)O)o2)C1` (centres undefined), the Potency is reported as inconclusive: 17.8 µM [inhibitor, partial curve, poor fit]. For `O=C(NCCCc1ccccc1)c1n[nH]c2c1CN(C(=O)c1c(F)cccc1F)CC2`, the Potency was active: 17.8 µM. For `COc1ccc(C(=O)N[C@@H]2CCC[C@@H]2C(=O)NCc2ccc(C)o2)cc1`, the Potency was inconclusive: 89.1 µM [inhibitor, single point]. With `COCCN1CCCCCC(O)c2cc(C(=O)NCCc3ccccn3)ccc21` (centres undefined) the “outcome” value was “inactive”. For `COc1ccccc1CC(=O)N1CCC(n2cc(-c3nc(C)no3)nn2)CC1`, the “activity change, negative = cytotoxicity” value was inactive: -7.44%. For `COc1ccc(CNC(=O)C[C@@H]2C[C@@H](C(C)C)[C@H](CNC(=O)c3ccc(NC(C)=O)cc3)C=C2C)cc1`, the Potency was inconclusive: 7.08 µM [inhibitor, full curve, poor fit]. For `Cc1cccc(C(=O)N2CCCC(c3noc(COc4ccccc4F)n3)C2)c1` (centres undefined), the Potency was inconclusive: 50.1 µM [inhibitor, partial curve, poor fit]. For `O=C(Nc1cccc(Cl)c1)C1=NO[C@@H]2CN(Cc3cccnc3)C[C@H]12`, the Potency was inconclusive: 70.8 µM [inhibitor, partial curve, poor fit]. For `O=C1COC[C@H]([C@H](O)c2ccc(NC(=O)c3ccc(C(F)(F)F)cc3)cc2)N1`, the Potency was inconclusive: 63.1 µM [inhibitor, full curve]. For `COC(=O)c1cccc(NC(=O)c2cnc(-c3ccc(F)cc3)nc2-c2ccncc2)c1`, the Potency was inconclusive: 50.1 µM [inhibitor, partial curve, poor fit]. In the case of `COc1ccccc1CN1CCC(CN(CC(C)C)C(=O)C2C=CCN2)CC1` (centres undefined), the “activity change, negative = cytotoxicity” value is reported as inactive: -3.47%. For `O=C(c1ccc(Cl)nc1)N1CCN(C(=O)c2nc3cccnc3n(CCc3ccccc3)c2=O)CC1`, the “activity change, negative = cytotoxicity” value was inactive: -9.04%. In the case of `Cc1cccc(NC(=O)CN2C(=O)NC3(CCC(C(C)(C)C)CC3)C2=O)c1C` (centres undefined), the Potency is reported as inconclusive: 89.1 µM [inhibitor, single point]. In the case of `CCO[C@H]1CN(Cc2cnc(-c3ccccc3C)s2)C[C@@H]1O`, the Potency is reported as inconclusive: 89.1 µM [inhibitor, partial curve, poor fit]. In the case of `COCCNC(=O)c1nc2c(o1)CCN(Cc1ccc(F)c(Cl)c1)CC2`, the Potency is reported as inconclusive: 89.1 µM [inhibitor, partial curve]. For `Cc1cccc(-c2cc(C3CCN(S(=O)(=O)c4ccc(C#N)cc4)CC3)[nH]n2)c1`, the Potency was inconclusive: 22.4 µM [inhibitor, full curve, poor fit]. With `Nc1ccc(-c2ccc(OCCn3ccnc3)cc2)cn1` the Potency was inconclusive: 2.82 µM [inhibitor, full curve, poor fit]. In the case of `COc1ccc(CC2CCOC3(CCN(C(=O)c4ccc(C)s4)CC3)C2)cc1` (centres undefined), the Potency is reported as inconclusive: 50.1 µM [inhibitor, partial curve, poor fit]. In the case of `O=C1COc2ccc(-c3ccncc3)nc2CN1Cc1ccccc1F`, the Potency is reported as inconclusive: 100 µM [inhibitor, partial curve]. In the case of `CCc1ccc(-n2nnnc2N2CCN(C(=O)Nc3ccc(C)c(F)c3)CC2)cc1`, the Potency is reported as inconclusive: 79.4 µM [inhibitor, single point]. In the case of `COc1ccc(N2CCOC3CCN(Cc4cccc(Cl)c4)CC3C2=O)cc1` (centres undefined), the Potency is reported as inconclusive: 100 µM [inhibitor, partial curve]. With `O=C(c1ccoc1)N1CCc2onc(C(c3ccccc3)c3ccccc3)c2C1` the Potency was inconclusive: 79.4 µM [inhibitor, partial curve, poor fit]. In the case of `COc1cc2nc(-c3cc4c(c(OC)c3)OCCNC4)cc(C)c2cc1OC`, the Potency is reported as inconclusive: 79.4 µM [inhibitor, single point]. For `COc1ccc(C(=O)N2CCCCCC2c2nc(-c3cccnc3)no2)cc1` (centres undefined), the Potency was inconclusive: 50.1 µM [inhibitor, partial curve, poor fit]. In the case of `COc1ccccc1-c1ccc(C(=O)N2CCC(C(=O)N3CCCC3)CC2)cc1`, the Potency is reported as inconclusive: 89.1 µM [inhibitor, single point]. With `O=C(CCC1CCCN(S(=O)(=O)c2ccccc2)C1)NCC1CC1` (centres undefined) the Potency was inconclusive: 79.4 µM [inhibitor, single point]. For `COc1cccc(CN2CCc3c(cc(C(=O)Nc4ccccc4)n3C)C2)c1`, the Potency was active: 44.7 µM. For `Cc1c(F)cccc1NC(=O)N1CCC(Oc2ncccc2C(=O)N2CCCCC2)C1` (centres undefined), the “activity change, negative = cytotoxicity” value was inactive: 2.12%. With `O=C(NCC1CC1)c1cn(C2CN(C(=O)NCc3ccccc3)C2)nn1` the “outcome” value was “inactive”. For `COc1ccccc1-c1nc(C2CC(=O)N(c3ccc(F)c(Cl)c3)C2)no1` (centres undefined), the Potency was inconclusive: 56.2 µM [inhibitor, partial curve, poor fit]. For `COc1ccc2[nH]c3c(c2c1)CCNC31CCN(C(=O)c2cc(C)n(C)n2)CC1`, the Potency was inconclusive: 12.6 µM [inhibitor, full curve]. With `C=CCOc1c(OC)ccc2c1CN(Cc1ccccc1)C(=O)CCN2CC(C)O` (centres undefined) the “activity change, negative = cytotoxicity” value was inactive: -26.9%. In the case of `O=C(NC1CCCN(c2cc(-c3ccccc3)[nH]n2)C1)c1ccc(C(F)(F)F)cc1` (centres undefined), the Potency is reported as inconclusive: 56.2 µM [inhibitor, partial curve, poor fit]. With `CN(C)c1ccc(CN2CCn3c(nn(-c4ccc(Cl)cc4)c3=O)C2)cc1` the Potency was inconclusive: 89.1 µM [inhibitor, single point].
